Source: PubChem BioAssay (NCATS)
This list was built around the results that the source calls inconclusive (neither active nor inactive); the mix of calls is not that of the screen. Potencies beside an inconclusive call are fits to weak or partial responses and may not hold up. Calls of active or inactive are those of the source. Calls follow the shape of the dose curve; as a rule, active = well fitted cell-killing curve with a large enough effect; inconclusive = small, poorly fitted or top-dose-only effect, or effect the other way; inactive = flat fitted curve, though single readings scatter.

Tested on: SKOV3
Test: Primary qHTS to identify gynecologic anti-cancer compounds using libraries of approved drugs and bioactive compounds (AID 1345084); also: nearly all actives have a fitted effect of over 55% in size
Settings: Gynecologic cancer cell panel viability, ATPlite luminescence, 48 h; series mostly up to 57.5 µM
In short: (§1)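 Five-point cytotoxicity, 48 h drug exposure at 37 C, 5% CO2, on cells seeded 16 h beforehand. ATP content read by ATPlite luminescence.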
Potency is read from the fitted curve at half-maximal effect; tags tell the direction and shape of the fitted curve.

| SMILES | Potency |
| --- | --- |
| Cc1c(NC(=O)c2cc(C(N)=O)nc3cc(F)ccc23)c(C(F)(F)F)nn1Cc1ccc(C#N)cc1 | active: 2.24 µM |
| N#CC(c1ccnc(OCc2ccc(CN3CCOCC3)cc2)n1)c1nc2ccccc2s1 (configuration not stated) | active: 7.94 µM |
| Cc1cc(C)c(CNC(=O)c2cc(-c3ccc(CN4CCOCC4)cc3)cc3c2cnn3C2CCCC2)c(=O)[nH]1 | inconclusive: 39.8 µM [rising, single point] |
| CC(=O)O[C@@](C)(C(=O)/C=C/C(C)(C)O)[C@H]1[C@H](O)C[C@@]2(C)[C@@H]3CC=C4[C@@H](C=C(O)C(=O)C4(C)C)[C@]3(C)C(=O)C[C@]12C | inconclusive: 1.12 µM [cytotoxic, full curve, poor fit] |
| Cc1cc(C)c(Nc2ccnc(Nc3ccc(C#N)cc3)n2)c(C)c1 | inconclusive: 35.5 µM [cytotoxic, single point] |
| C=C1C(=O)O[C@@H]2C[C@H](C)[C@@H]3CC(=O)C(C)=C3C[C@H]12 | inconclusive: 39.8 µM [cytotoxic, single point] |
| CCNC(=O)C#Cc1ccc2c(C(=Nc3ccc(CN(C)C)cc3)c3ccccc3)c(O)[nH]c2c1 | active: 1.41 µM |
| CC(=O)NCC(=O)N1C2CCC1c1cc(Nc3ncc(C(F)(F)F)c(NC4CCC4)n3)ccc12 (configuration not stated) | inconclusive: 12.6 µM [cytotoxic, partial curve, poor fit] |
| Cc1c(NC(=O)OCC2COCCN2)cn2ncnc(Nc3ccc4c(cnn4Cc4cccc(F)c4)c3)c12 (configuration not stated) | inconclusive: 0.316 µM |
| CN1CCN(c2ccc(C(=O)Nc3n[nH]c4ccc(Cc5cc(F)cc(F)c5)cc34)c(NC3CCOCC3)c2)CC1 | inconclusive: 31.6 µM [cytotoxic, partial curve, poor fit] |

Tested on: Tov-21-G
Test: as above
Settings: Gynecologic cancer cell panel viability, ATPlite luminescence, 48 h; series mostly up to 57.5 µM
In short: as §1

| SMILES | Potency |
| --- | --- |
| CC(=O)NC1=NN(C(C)=O)C(C)(c2ccccc2)S1 (configuration not stated) | inconclusive: 4.47 µM [cytotoxic, full curve] |
| CNC(=O)c1cccc(-c2ccc3c(N4CCOC[C@@H]4C)nc(N4CCOC[C@@H]4C)nc3n2)c1 | active: 1.41 µM |
| Nc1ncnc2c1nc(N)n2[C@@H]1O[C@H](CO)[C@@H](O)[C@H]1O | active: 3.16 µM |
| COc1ccc(F)cc1-c1cc(NC(=O)[C@@H]2CCCNC2)ncc1Cl | inconclusive: 0.178 µM [cytotoxic, full curve] |
| C=C1C(=O)O[C@H]2/C=C(/C)[C@@H](OC(C)=O)C/C=C(\C)C[C@@H](OC(=O)/C(=C/C)COC(=O)/C(=C/C)CO)[C@@H]12 | active: 8.91 µM |
| CNc1cccc(CCOc2ccc3c(c2)CN(CC(F)(F)F)C(=O)[C@H](CC(=O)O)C3)n1 | active: 0.501 µM |
| Cc1ccccc1-n1c([C@H](C)Nc2nc(N)nc3nc[nH]c23)nc2cccc(C)c2c1=O | inconclusive: 31.6 µM [cytotoxic, single point] |
| C/C1=C\CCC2=CC(OC2=O)C(C)(C)/C=C/C1=O (configuration not stated) | inconclusive: 17.8 µM [cytotoxic, partial curve] |
| COc1cc2nc(N3CCN(C)CC3)nc(NC3CCN(Cc4ccccc4)CC3)c2cc1OC | inconclusive: 28.2 µM [cytotoxic, partial curve, poor fit] |
| CC(=O)O[C@H]1CC(C)(C)CC2[C@]13CO[C@@]21CCC2[C@@]4(C)CC[C@H](O[C@@H]5OC[C@H](O[C@@H]6O[C@H](CO)[C@@H](O)[C@H](O)[C@H]6O[C@@H]6OC[C@@H](O[C@@H]7O[C@H](CO)[C@@H](O)[C@H](O)[C@H]7O)[C@H](O)[C@H]6O)[C@H](O)[C@H]5O[C@@H]5O[C@H](CO)[C@@H](O)[C@H](O)[C@H]5O)[C@@](C)(CO)C4CC[C@@]2(C)[C@]1(C)C[C@H]3O (some centres not stated) | inconclusive: 3.98 µM [cytotoxic, single point] |
| CN1CCc2cccc3c2[C@H]1Cc1ccc(O)c(O)c1-3 | inconclusive: 35.5 µM [cytotoxic, single point] |
| N#CC(c1ccnc(OCc2ccc(CN3CCOCC3)cc2)n1)c1nc2ccccc2s1 (configuration not stated) | inconclusive: 8.91 µM [cytotoxic, full curve, poor fit] |
| CC(=O)O[C@@](C)(C(=O)/C=C/C(C)(C)O)[C@H]1[C@H](O)C[C@@]2(C)[C@@H]3CC=C4[C@@H](C=C(O)C(=O)C4(C)C)[C@]3(C)C(=O)C[C@]12C | active: 2.82 µM |
| Cc1cc(C)c(Nc2ccnc(Nc3ccc(C#N)cc3)n2)c(C)c1 | inconclusive: 39.8 µM [cytotoxic, single point] |
| C=C1C(=O)O[C@@H]2C[C@H](C)[C@@H]3CC(=O)C(C)=C3C[C@H]12 | inconclusive: 35.5 µM [cytotoxic, single point] |
| CCNC(=O)C#Cc1ccc2c(C(=Nc3ccc(CN(C)C)cc3)c3ccccc3)c(O)[nH]c2c1 | inconclusive: 0.224 µM [cytotoxic, full curve, poor fit] |
| Cc1c(NC(=O)OCC2COCCN2)cn2ncnc(Nc3ccc4c(cnn4Cc4cccc(F)c4)c3)c12 (configuration not stated) | inconclusive: 0.316 µM [cytotoxic, partial curve, poor fit] |
